The values below come from PubChem BioAssay AID463173 (ICCB-Longwood Screening Facility, Harvard Medical School, 2010).

Structures are written as SMILES. Among all 52,000 compounds or so, about 4,300 (8.3%) were called active. Cut-off read from the data, not from the text of the source: active = survival mostly below about 52% (no sharp cut-off); inactive = mostly above about 56%. This is one part of the list.

This assay concerns DeltatarO mutant. Description: S. aureus survival, RN4220 and DeltatarO strains – OD600, teichoic acid synthesis inhibitors, primary screen (AID 463173). Particulars: S. aureus RN4220 wild type/DeltatarO growth, OD600, 18 h, stronger effect = lower value, screened at 18.75 µg/mL (by protocol).
On to `Cc1nc(SCC(=O)Nc2ccc(Cl)cc2C(F)(F)F)[nH]c(=O)c1Cc1ccccc1`, for which the survival was inactive: 68%.
Regarding `Cc1ccc(Cn2cc3c(n2)-c2c(oc(C(=O)Nc4ccc(F)cc4F)c2C)CC3)cc1`, the survival is inactive: 85%.
Consider `CCOc1ccccc1CNC(=O)c1ccc2nc(CCc3ccccc3)oc2c1`, for which the survival is inactive: 83%.
The figure for `CCc1nn2c(=O)cc(COC(=O)c3cccs3)nc2s1` is inactive: 83%; for `COC(=O)c1ccc(CN(Cc2ccc(OC)c(OC)c2)S(=O)(=O)c2ccc(F)c(C(=O)Nc3cc(C)ccc3C)c2)cc1` it is inactive: 94%; for `CCOc1ccccc1NC(=O)CN1Cc2ccccc2C1=O` it is inactive: 96%.
The value for `N#Cc1nc(/C=C/c2ccc(F)cc2)oc1N1CCCCC1` was inactive: 93%; that for `CC(=O)N/N=C/c1cc(C(C)C)cc(/C=N/NC(C)=O)c1O` was inactive: 98%.
On to `Cc1cccc(C(=O)NCC(=O)OCc2cc(=O)n3nc(C)sc3n2)c1`, for which the survival was inactive: 82%.
Regarding `O=C(NCc1ccccc1)c1ccc(Cn2c(=O)c3cccn3c3cccnc32)cc1`, the survival is inactive: 108%.
The figure for `CCOC(=O)c1c(-c2ccccc2)csc1NC(=O)c1cc(-c2cccc(Cl)c2)on1` is inactive: 59%; for `Cc1ccc(C)c(N2CCN(S(=O)(=O)c3ccc4c(c3)n(C)c(=O)c(=O)n4C)CC2)c1` it is inactive: 76%.
The figure for `COc1cc(OC)c(NC(=O)CSCc2nc(-c3ccc(OC)c(OC)c3)no2)cc1Cl` is inactive: 96%; for `CC(=O)c1cccc(NC(=O)c2ccc3c(c2)c(C)c(C)n3Cc2ccc(Cl)cc2)c1` it is inactive: 82%.
The figure for `CN(Cc1ccccc1)S(=O)(=O)c1ccc(F)c(C(=O)Nc2cc(Cl)cc(Cl)c2)c1` is inactive: 87%; for `O=C(Nc1cc(-c2nc3cc(Cl)ccc3o2)ccc1Cl)c1cc2ccccc2o1` it is inactive: 82%.
In the case of `CCN(Cc1ccccc1)Cc1c(O)ccc2c(=O)c(-c3ccccc3Cl)coc12`, the survival was inactive: 51%.
The figure for `O=C(O)CN1Cc2ccccc2C1` is inactive: 99%; for `CCn1cc(C(=O)NCCCOC(C)C)c(=O)c2cc(S(=O)(=O)N(C)C3CCCCC3)ccc21` it is inactive: 113%; for `CCOc1ccccc1NC(=O)C(C)n1nnc2sc3c(c2c1=O)CCCC3` (centres undefined) it is inactive: 108%.
The figure for `COc1ccc(NC(=O)CSc2nc3ccccc3n2CC(=O)Nc2cccc(C)c2C)cc1` is inactive: 124%; for `Cc1ccc(CCNC(=O)c2ccc(Cn3c(=O)c4cccn4c4cccnc43)cc2)cc1` it is inactive: 52%.
The value for `Cc1ccc(-n2c(SCC(N)=O)nc3c(oc4ccccc43)c2=O)cc1` was inactive: 69%; that for `CCn1c(CNC(=O)C23CC4CC(CC(C4)C2)C3)nnc1SCC(=O)Nc1ccc(OC)cc1` was inactive: 83%.
